According to the supplement of paper PMC3334620:
Over roughly 33,000 sequences, “E-score (-0.5 to 0.5)” has its median near -0.054; the highest 2% begin near 0.39. This is one part of the list.

Target: Ylr278c (UniProt Q05854)
Test: PBM E-score (8-mer binding enrichment) (E-score (-0.5 to 0.5)); higher = stronger / more preferred TF binding; most listed sequences are background and not binding sites
Details: protein concentration: 200 nM; construct: GST-DNA-binding domain
Summary of the method: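 Using PURExpress in vitro transcription/translation, GST-tagged yeast transcription factors were made in full-length or DNA-binding-domain form. These were applied at about 100-200 nM to double-stranded universal all-10-mer Agilent arrays, and bound protein was detected with fluorescent anti-GST. Scans were normalised with masliner before the Universal PBM Analysis Suite assigned E-scores to ungapped eight-base words pooled with their reverse complements.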

Sequence	PBM E-score
ACGCGACG	0.0101
CACTACAA	-0.0272
AAAGTTCT	0.0288
ACGGCGAT	0.197
GGGGCACC	0.0504
ATACAATG	-0.0989
AATGGGAA	-0.223
AACATGGC	-0.171
CGGTGAAA	0.36
AAGAAGAT	0.078
AAAGTAAA	-0.0568
ATGAGTAA	-0.185
AGAAAGTG	-0.0436
ATTGCATC	-0.105
CTTTTCCC	0.033
ATCACAAC	-0.063
TCTGCAAA	-0.166
AGCGCCGA	0.291
AGAGCCTA	-0.155
GTACATAC	-0.012
GCAATAGA	-0.147
AACACGTT	-0.103
CTCCTTTA	-0.132
AAGAAATA	-0.202
ATGCTATA	-0.309

Sequence	PBM E-score
GCTCCACA	-0.178
GAAAAAGC	0.134
ACGAAAAG	-0.0347
CAACTGAC	-0.106
CTAGTGAG	-0.105
CTTAACTA	-0.204
ATCTTAAG	-0.146
CGTCTGAC	-0.0584
CAGGTGGA	-0.218
TGTAACAA	-0.203
ATCAGAAA	-0.145
AACGCCCC	0.169
ATTCTCAG	-0.218
AATAGGGC	0.0122
ACTTTCAT	-0.16
AAAGGCAT	-0.132
AGCTGAGC	-0.145
CTGCGATC	-0.0009
GGAGGCGA	0.0526
AATCCTTG	0.0744
TCGCCAAA	-0.184
ATTTGCTG	-0.0877
CCTCATTA	-0.0573
AATATCAC	-0.0363
CAGCGACC	-0.116

Sequence	PBM E-score
AAGTCAAC	-0.28
AGTTCTCG	-0.0718
ACGGCTCT	-0.0791
CAATAAGA	-0.147
ATCCCCGA	0.379
ATACTTCA	-0.155
ATCTTAAA	-0.0174
GAGCCCCC	-0.0733
CCTTGCTA	-0.17
CAAGCGGA	0.272
GCTCCAAA	-0.172
ATTAATAA	0.156
ATCTCCGG	0.493
ATCCTATG	0.0235
AACGAGCA	-0.239
ATTTAAGG	-0.0397
TGAGGGAA	-0.178
AATCATGG	-0.228
AATAGTCA	-0.133
AGCAGGCC	-0.113
AACGTCTC	-0.263
CTACGCTA	-0.121
ATCTCGAA	-0.0131
ATTTCTGG	-0.0816
GGAGGATA	0.0329

Sequence	PBM E-score
CTGTGAGC	-0.12
TACACGTA	-0.173
AATGAGGT	-0.032
CCCTACAC	0.00834
CGTCATCA	-0.197
ATAATAGC	0.00806
CAACGCAC	-0.00309
CTAGTCTC	-0.156
CATGACTA	-0.263
AATTAATG	0.0742
ACCTATCC	-0.0335
CACTTAGC	-0.122
ACTTGTGG	-0.0504
AAATTTTC	0.0224
CCTGTTCA	-0.287
AAGGATCG	-0.0269
CCCACAAG	-0.0237
CAAGGAGC	-0.0876
AAATGACA	-0.181
ATTCCTGA	-0.0977
CTGCTACA	-0.0228
CGCGGAGA	0.428
CCGTGTCA	0.235
TCGACTAA	-0.0871
CAAACTTC	0.0257

Sequence	PBM E-score
AGGTACTA	-0.157
CCCTGGGC	-0.282
CCGGGGCC	0.358
CCCCCCCC	-0.351
TCGAGACA	-0.266
AAAACAGC	-0.0177
CCCCGGTA	0.329
CACCCCCC	-0.186
AGTATCCG	0.264
ATATCCGA	0.387
ACGGAGTC	0.398
AACCCTAG	-0.209
TGTCGCAA	-0.0678
GTCCGATA	0.414
CACGGACC	0.282
CCGTAGTC	0.301
GAATGAGC	-0.0948
GAGCTGGC	-0.0798
GAGGACGC	0.00854
ATTGTGGC	-0.104
AAACGACC	-0.0492
AAACCTCA	0.0175
CGTCCAGC	-0.233
GCATGAGC	-0.134
ACACAGGA	-0.0473

Sequence	PBM E-score
ACGTCAAG	-0.309
AAGGCACA	-0.231
GGTCATAA	-0.0252
CCTCCCCC	-0.181
CATCGAGG	-0.185
AGTGCCCC	-0.118
GTGCTCAA	-0.104
ACCCACTA	0.0798
TAGGGTAA	0.0144
ACGTGAAA	-0.124
CGCCATTC	0.198
ATCATGAT	-0.14
GGCGCGAC	0.19
AGAAAGTA	-0.141
CCGTGCAC	0.0905
AAATGCCA	-0.131
ACGTGTAA	-0.217
AAGCGCAG	0.199
CAAGGACC	-0.0179
ATCCTCCC	0.0358
CATTACCA	-0.0748
AGGCGGGG	0.221
TCTCTCCA	-0.0638
TCCCAGAA	-0.128
CCTTACTA	-0.0108

Sequence	PBM E-score
ACACTGTA	-0.213
ATTATTTA	0.11
ATATTCGA	-0.0363
AGCGTACC	-0.0838
CCCGAATC	0.251
GTATGCGA	-0.0635
TCGCCTCA	0.0413
AATCAATC	0.136
CTCCGTTA	0.347
GATGTTAA	0.0201
ACAGATAA	-0.0863
CGTGGAAC	0.0665
ATTGTGGA	-0.0975
ACGTGAAC	-0.192
CAGATGCC	-0.132
CCATTCAG	-0.0237
GACGGGGA	0.312
CGCGGGCC	0.272
ATGTAGTC	-0.141
CACTACAG	-0.0843
GGTAACCA	-0.263
CGGAGTAC	0.462
